These results are taken from ChEMBL document CHEMBL4138110, “The relevance of Ki calculation for bi-substrate enzymes illustrated by kinetic evaluation of a novel lysine (K) acetyltransferase 8 inhibitor” (Eur J Med Chem, 2017).

Bounds are passed on as bounds.

Test system in the first data set: not listed separately
Put plainly: Stability of compound in 50 mM HEPES buffer up to 4 hrs by HPLC analysis. In kind it is physicochemical.
`Nc1ccc(O)c2ccccc12`: the Stability entry is listed as “Stable”.

Test system in the next data set: not listed separately
The experiment in a line: Antioxidant activity assessed as DPPH radical scavenging activity incubated for 15 mins. The data set is classed as functional.
Broadly, the EC50 is the midpoint of the concentration-response curve. Take `Nc1ccc(O)c2ccncc12`: the EC50 is 19 µM.
For the compound `CCC(=O)Nc1ccc(O)c2ccccc12`, the EC50 is 16 µM.
For the compound `Cc1ccc(S(=O)(=O)Nc2ccc(O)c3ccccc23)cc1`, the EC50 is 16 µM.
For `COc1ccc(N)c2ccccc12`, the EC50 came to 23 µM.
Regarding `Nc1ccc(O)cc1` [4-AMINOPHENOL], the EC50 was 20 µM.
`Nc1ccc(O)c2ccccc12`: the EC50 came out at 21 µM.
Same read-out and setting: under `COc1cc(O)c2ccccc2c1N` stands 26 µM; under `CS(=O)(=O)Nc1ccc(O)c2ccccc12`, 18 µM.
As to `Oc1ccnc2ccccc12`, the EC50 came to 1000 µM.
The same measure, in the same setting: for `Nc1ccc(OCc2ccccc2)c2ccccc12` the value was 7 µM.
For `NC(=O)c1ccc(O)c2ccccc12`, the EC50 was determined as 430 µM.
For the compound `CC(=O)Oc1ccc(N)c2ccccc12`, the EC50 is greater than 1000 µM.
Still for that read-out and setting: under `NCc1ccc(O)c2ccccc12` stands 260 µM; under `CN(C)c1ccc(O)c2ccccc12`, 18 µM; under `Nc1ccc(CO)c2ccccc12`, 1000 µM.
Consider `O=C(Cc1ccccc1)Nc1ccc(O)c2ccccc12`, for which the EC50 is 18 µM.
With `CCCCCCCCCC(=O)Nc1ccc(O)c2ccccc12`, the EC50 was found to be 18 µM.
Regarding `O=[N+]([O-])c1ccc(O)c2ccccc12`, the EC50 is greater than 1000 µM.
The same measure, in the same setting: for `N#Cc1ccc(N)c2ccccc12` the value was 1000 µM.
Turning to `CC(=O)Nc1ccc(O)c2ccccc12`, the EC50 was found to be 14 µM.

For a further data set, the target named is Histone deacetylase 3/Nuclear receptor corepressor 2 (HDAC3/NCoR2) (Homo sapiens, UniProt O15379). Put plainly: Inhibition of full length recombinant human C-terminal His-tagged HDAC3/N-terminal GST-tagged NCOR2 (395 to 489 residues) co-expressed in baculovirus infected sf9 cells using Boc-Lys(epsioln-Ac)-AMC as substrate after 90 mins by fluorescence assay.
Sequence of UniProt O15379 (O15379 whole entry, the tested form may be a part): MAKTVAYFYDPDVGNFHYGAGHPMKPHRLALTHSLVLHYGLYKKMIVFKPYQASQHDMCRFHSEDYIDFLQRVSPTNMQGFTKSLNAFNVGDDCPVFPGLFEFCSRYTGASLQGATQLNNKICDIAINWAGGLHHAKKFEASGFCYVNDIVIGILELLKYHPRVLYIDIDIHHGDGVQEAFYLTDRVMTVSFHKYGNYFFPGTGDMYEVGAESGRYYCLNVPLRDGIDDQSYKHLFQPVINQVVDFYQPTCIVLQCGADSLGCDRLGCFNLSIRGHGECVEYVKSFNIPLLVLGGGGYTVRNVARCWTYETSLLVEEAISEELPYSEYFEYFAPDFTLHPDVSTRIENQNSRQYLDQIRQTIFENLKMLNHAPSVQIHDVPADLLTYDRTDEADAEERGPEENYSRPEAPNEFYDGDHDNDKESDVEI
Sequence of UniProt O15379 (Q9Y618 whole entry, further chain, the tested form may be a part): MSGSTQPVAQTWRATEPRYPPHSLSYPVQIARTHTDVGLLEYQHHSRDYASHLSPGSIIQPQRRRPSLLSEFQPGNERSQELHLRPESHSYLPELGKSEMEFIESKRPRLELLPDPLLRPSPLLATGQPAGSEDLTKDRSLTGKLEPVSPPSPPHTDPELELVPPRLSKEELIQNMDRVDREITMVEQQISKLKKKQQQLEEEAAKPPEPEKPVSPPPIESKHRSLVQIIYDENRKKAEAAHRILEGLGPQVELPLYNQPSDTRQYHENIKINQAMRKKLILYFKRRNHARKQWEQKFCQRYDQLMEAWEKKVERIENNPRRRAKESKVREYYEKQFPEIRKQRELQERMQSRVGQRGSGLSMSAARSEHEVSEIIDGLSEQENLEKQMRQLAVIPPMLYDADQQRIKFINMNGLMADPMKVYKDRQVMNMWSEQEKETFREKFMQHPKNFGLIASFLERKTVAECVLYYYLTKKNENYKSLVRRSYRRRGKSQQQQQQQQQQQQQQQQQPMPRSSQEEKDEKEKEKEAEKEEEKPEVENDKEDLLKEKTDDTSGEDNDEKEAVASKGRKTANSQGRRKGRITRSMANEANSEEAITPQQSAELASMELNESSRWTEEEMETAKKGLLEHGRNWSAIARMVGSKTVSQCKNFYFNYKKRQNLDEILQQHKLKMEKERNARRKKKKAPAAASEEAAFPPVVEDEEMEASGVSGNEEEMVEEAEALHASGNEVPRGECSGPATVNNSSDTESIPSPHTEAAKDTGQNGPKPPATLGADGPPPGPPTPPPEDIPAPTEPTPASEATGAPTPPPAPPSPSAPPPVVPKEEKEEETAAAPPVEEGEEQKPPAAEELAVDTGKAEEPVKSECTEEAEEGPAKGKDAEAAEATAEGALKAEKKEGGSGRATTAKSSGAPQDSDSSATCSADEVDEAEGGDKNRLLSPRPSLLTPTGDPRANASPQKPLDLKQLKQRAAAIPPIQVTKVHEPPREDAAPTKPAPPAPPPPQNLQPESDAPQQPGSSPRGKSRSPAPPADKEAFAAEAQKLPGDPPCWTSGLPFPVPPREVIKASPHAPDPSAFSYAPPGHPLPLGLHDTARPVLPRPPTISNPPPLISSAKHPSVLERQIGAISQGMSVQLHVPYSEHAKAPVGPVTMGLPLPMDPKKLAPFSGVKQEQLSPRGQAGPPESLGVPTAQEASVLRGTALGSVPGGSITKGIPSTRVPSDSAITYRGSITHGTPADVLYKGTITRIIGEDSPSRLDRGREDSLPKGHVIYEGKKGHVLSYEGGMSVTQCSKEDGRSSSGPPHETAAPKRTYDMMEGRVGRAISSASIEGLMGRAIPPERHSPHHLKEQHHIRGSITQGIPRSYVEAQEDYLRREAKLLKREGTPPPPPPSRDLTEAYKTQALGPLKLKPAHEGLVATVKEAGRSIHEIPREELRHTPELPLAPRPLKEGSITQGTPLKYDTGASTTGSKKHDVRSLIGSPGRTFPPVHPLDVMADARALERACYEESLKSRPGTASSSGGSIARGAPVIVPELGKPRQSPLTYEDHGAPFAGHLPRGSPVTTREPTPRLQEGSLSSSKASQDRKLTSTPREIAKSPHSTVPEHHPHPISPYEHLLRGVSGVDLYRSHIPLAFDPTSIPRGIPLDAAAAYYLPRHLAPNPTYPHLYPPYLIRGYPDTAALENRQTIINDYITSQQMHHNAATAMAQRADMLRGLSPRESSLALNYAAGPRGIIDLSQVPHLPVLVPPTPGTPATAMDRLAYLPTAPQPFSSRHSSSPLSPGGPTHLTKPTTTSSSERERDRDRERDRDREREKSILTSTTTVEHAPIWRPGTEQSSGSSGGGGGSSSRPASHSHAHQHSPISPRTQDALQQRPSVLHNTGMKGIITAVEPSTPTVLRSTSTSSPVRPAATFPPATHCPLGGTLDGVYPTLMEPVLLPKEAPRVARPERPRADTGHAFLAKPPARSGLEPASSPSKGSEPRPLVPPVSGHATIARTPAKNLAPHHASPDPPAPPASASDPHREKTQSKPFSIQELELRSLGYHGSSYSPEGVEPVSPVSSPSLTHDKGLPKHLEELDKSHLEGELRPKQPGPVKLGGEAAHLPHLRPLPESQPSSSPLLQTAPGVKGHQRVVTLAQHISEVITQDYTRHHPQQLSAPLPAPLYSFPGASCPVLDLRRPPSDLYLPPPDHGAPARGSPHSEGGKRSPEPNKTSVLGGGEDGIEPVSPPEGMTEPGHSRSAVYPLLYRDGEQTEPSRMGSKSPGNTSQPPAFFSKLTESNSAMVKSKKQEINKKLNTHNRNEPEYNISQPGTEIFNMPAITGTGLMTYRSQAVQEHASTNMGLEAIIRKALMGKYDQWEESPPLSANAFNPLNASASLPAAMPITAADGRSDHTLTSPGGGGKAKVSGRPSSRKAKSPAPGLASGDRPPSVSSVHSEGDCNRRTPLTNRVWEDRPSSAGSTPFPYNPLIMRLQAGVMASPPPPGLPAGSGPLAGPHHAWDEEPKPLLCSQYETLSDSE
By IC50 is commonly meant the concentration that inhibits the measured activity by half. With `Nc1ccc(O)c2ccccc12`, the half-inhibitory concentration (IC50) lay in the range of 80 to 90 µM.
